# Results reported in the supplement of paper PMC8728848.
# The other results are listed elsewhere or left out.
# What was measured:
# Assay in all cases: glycan array binding signal (z-score within array); higher = stronger binding
# Conditions in all cases: glycan notation: IUPAC condensed, linker removed
# [1] = molecular target: Fuc(a1-2)Gal
# How it was run: (§1)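 Glycan array data were curated from 3228 arrays in the Consortium for Functional Glycomics database and kept only where the protein sequence was available. Glycan names were converted to IUPAC-condensed notation, and columns mapping to the same glycan were averaged. The binding signal is a within-array Z-score, averaged across arrays of the same protein sequence at different concentrations or buffers and across linkers. Negative Z-scores can be read as non-binding.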
# [2] = molecular target: Fuc(a1-2)Gal(b1-3)GalNAc
# How it was run: as §1
# [3] = molecular target: Fuc(a1-2)Gal(b1-3)GalNAc(b1-3)Gal
# How it was run: as §1
# [4] = molecular target: Fuc(a1-2)Gal(b1-3)GalNAc(b1-3)Gal(a1-4)Gal(b1-4)Glc
# How it was run: as §1
# [5] = molecular target: Fuc(a1-2)Gal(b1-3)GalNAc(b1-4)[Neu5Ac(a2-3)]Gal(b1-4)Glc
# How it was run: as §1
# [6] = molecular target: Fuc(a1-2)Gal(b1-3)GlcNAc
# How it was run: as §1
# [7] = molecular target: Fuc(a1-2)Gal(b1-3)GlcNAc(b1-3)Gal(b1-4)Glc
# How it was run: as §1
# [8] = molecular target: Fuc(a1-2)Gal(b1-3)[Fuc(a1-4)]GlcNAc
# How it was run: as §1
# [9] = molecular target: Fuc(a1-2)Gal(b1-4)Glc
# How it was run: as §1
# [10] = molecular target: Fuc(a1-2)Gal(b1-4)GlcNAc
# How it was run: as §1
# [11] = molecular target: Fuc(a1-2)Gal(b1-4)GlcNAc(b1-3)Gal(b1-4)GlcNAc
# How it was run: as §1
# [12] = molecular target: Fuc(a1-2)Gal(b1-4)GlcNAc(b1-3)Gal(b1-4)GlcNAc(b1-3)Gal(b1-4)GlcNAc
# How it was run: as §1
# [13] = molecular target: Fuc(a1-2)Gal(b1-4)[Fuc(a1-3)]GlcNAc
# How it was run: as §1
# [14] = molecular target: Fuc(a1-2)Gal(b1-4)[Fuc(a1-3)]GlcNAc(b1-3)Gal(b1-4)[Fuc(a1-3)]GlcNAc
# How it was run: as §1
# [15] = molecular target: Fuc(a1-2)Gal(b1-4)[Fuc(a1-3)]GlcNAc(b1-3)Gal(b1-4)[Fuc(a1-3)]GlcNAc(b1-3)Gal(b1-4)[Fuc(a1-3)]GlcNAc
# How it was run: as §1
# [16] = molecular target: Fuc(a1-2)GlcNAc
# How it was run: as §1
# [17] = molecular target: Fuc(a1-2)[Gal(a1-3)]Gal
# How it was run: as §1
# [18] = molecular target: Fuc(a1-2)[Gal(a1-3)]Gal(b1-3)GlcNAc
# How it was run: as §1
# [19] = molecular target: Fuc(a1-2)[Gal(a1-3)]Gal(b1-4)Glc
# How it was run: as §1
# [20] = molecular target: Fuc(a1-2)[Gal(a1-3)]Gal(b1-4)GlcNAc
# How it was run: as §1
# [21] = molecular target: Fuc(a1-2)[Gal(a1-3)]Gal(b1-4)[Fuc(a1-3)]GlcNAc
# How it was run: as §1
# [22] = molecular target: Fuc(a1-2)[Gal(a1-4)]Gal(b1-4)GlcNAc
# How it was run: as §1
# [23] = molecular target: Fuc(a1-2)[GalNAc(a1-3)]Gal
# How it was run: as §1
# [24] = molecular target: Fuc(a1-2)[GalNAc(a1-3)]Gal(b1-3)GlcNAc
# How it was run: as §1
# [25] = molecular target: Fuc(a1-2)[GalNAc(a1-3)]Gal(b1-4)Glc
# How it was run: as §1
# [26] = molecular target: Fuc(a1-2)[GalNAc(a1-3)]Gal(b1-4)GlcNAc
# How it was run: as §1
# [27] = molecular target: Fuc(a1-2)[GalNAc(a1-3)]Gal(b1-4)[Fuc(a1-3)]GlcNAc
# How it was run: as §1
# [28] = molecular target: Fuc(a1-2)[GalNAc(a1-4)]Gal(b1-4)GlcNAc
# How it was run: as §1
# [29] = molecular target: Fuc(a1-2)[GalNAc(b1-3)]Gal
# How it was run: as §1
# [30] = molecular target: Fuc(a1-3)GlcNAc
# How it was run: as §1
binder,measurement,setting,value
MPA (Maclura pomifera) (protein) GVTFDDGAYTGIREINFEYNSETAIGGLRVTYDLNGMPFVAEDHKSFITGFKPVKISLEFPSEYIVEVSGYVGKVEGYTVIRSLTFKTNKQTYGPYGVTNGTPFSLPIENGLIVGFKGSIGYWLDYFSIYLSLNGPNGKSQSIIVGPWGDRVTN,glycan array binding signal (z-score),[1],-0.136
same,glycan array binding signal (z-score),[2],2.25
same,glycan array binding signal (z-score),[3],0.14
same,glycan array binding signal (z-score),[4],-0.234
same,glycan array binding signal (z-score),[5],-0.237
same,glycan array binding signal (z-score),[6],-0.234
same,glycan array binding signal (z-score),[7],-0.244
same,glycan array binding signal (z-score),[8],-0.236
same,glycan array binding signal (z-score),[9],-0.208
same,glycan array binding signal (z-score),[10],-0.213
same,glycan array binding signal (z-score),[11],-0.244
same,glycan array binding signal (z-score),[12],-0.242
same,glycan array binding signal (z-score),[13],-0.22
same,glycan array binding signal (z-score),[14],-0.222
same,glycan array binding signal (z-score),[15],-0.217
same,glycan array binding signal (z-score),[16],-0.189
same,glycan array binding signal (z-score),[17],-0.123
same,glycan array binding signal (z-score),[18],-0.244
same,glycan array binding signal (z-score),[19],-0.242
same,glycan array binding signal (z-score),[20],-0.241
same,glycan array binding signal (z-score),[21],-0.247
same,glycan array binding signal (z-score),[22],-0.233
same,glycan array binding signal (z-score),[23],-0.23
same,glycan array binding signal (z-score),[24],-0.24
same,glycan array binding signal (z-score),[25],-0.232
same,glycan array binding signal (z-score),[26],-0.234
same,glycan array binding signal (z-score),[27],-0.229
same,glycan array binding signal (z-score),[28],-0.223
same,glycan array binding signal (z-score),[29],-0.013
same,glycan array binding signal (z-score),[30],-0.191
